Data: a collection of fitness landscapes (doi:10.1016/j.celrep.2020.107928)
Whole data set: some 81,000 sequences, median “one-hybrid fitness for binding parS DNA” near -0.17, cut for the highest 2% near 0.51. The list shows a part of the results.

B1: Caulobacter ParB omega fusion; a variant is named by its letters at X, in order, B8GW30 (parent)
chain: MESVVVGEPGMSEGRRGLGRGLSALLGEVDAAPAQAPGEQLGGSREAPIEILQRNPDQPRRTFREEDLEDLSNSIREKGVLQPILVRPSPDTAGEYQIVAGERAWRAAQRAGLKTVPIMVRELDDLAVLEIGIIENVQRADLNVLEEALSYKVLMEKFERTQENIAQTIGKSXSHVANXMRLLXLPDEVQSYLVSGELTAXHARAIAAAADPVALAKQIIEGGLSVRETEALARKAPNLSAGKSKGGRPPRVKDTDTQALESDLSSVLGLDVSIDHRGSTGTLTITYATLEQLDDLCNRLTRGI

Variants of: B1
Assay: one-hybrid fitness for binding parS DNA (scaled: cognate 1, non-cognate 0); higher = stronger binding
Conditions: with parS DNA site
Summary of the method: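 Values were rescaled so that cognate is 1 and non-cognate is 0. Each is a fitness, the log change in a variant's read ratio to wild type from Illumina reads of plasmids before and after selection, with three replicate libraries pooled and variants under 10 reads dropped. Selection of the Caulobacter ParB libraries, four specificity codons randomised, used E. coli USO with a HIS3 reporter, site 19 bp from the promoter, on M9-minus-histidine with 0.1 mM IPTG and 5 mM 3-AT for 48 hours at 37°C.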
For FWHR, the “one-hybrid fitness for binding parS DNA” value was at most 0.2.
NPCI was tested, and the “one-hybrid fitness for binding parS DNA” value was at most 0.2.
In the case of VRYS, the “one-hybrid fitness for binding parS DNA” value is reported as at most 0.2.
RVLD was tested, and the “one-hybrid fitness for binding parS DNA” value was 0.245.
DLII was tested, and the “one-hybrid fitness for binding parS DNA” value was at most 0.2.
SVWD was tested, and the “one-hybrid fitness for binding parS DNA” value was at most 0.2.
LTPI was tested, and the “one-hybrid fitness for binding parS DNA” value was at most 0.2.
KTKQ was tested, and the “one-hybrid fitness for binding parS DNA” value was at most 0.2.
In the case of FCIG, the “one-hybrid fitness for binding parS DNA” value is reported as at most 0.2.
In the case of HWSR, the “one-hybrid fitness for binding parS DNA” value is reported as at most 0.2.
With MPTG the “one-hybrid fitness for binding parS DNA” value was at most 0.2.
In the case of DIRN, the “one-hybrid fitness for binding parS DNA” value is reported as at most 0.2.
QNPK was tested, and the “one-hybrid fitness for binding parS DNA” value was at most 0.2.
LILK was tested, and the “one-hybrid fitness for binding parS DNA” value was at most 0.2.
NPIS was tested, and the “one-hybrid fitness for binding parS DNA” value was at most 0.2.
With WIMG the “one-hybrid fitness for binding parS DNA” value was at most 0.2.
For LTFA, the “one-hybrid fitness for binding parS DNA” value was at most 0.2.
In the case of TSGY, the “one-hybrid fitness for binding parS DNA” value is reported as at most 0.2.
In the case of FHKY, the “one-hybrid fitness for binding parS DNA” value is reported as at most 0.2.
In the case of NITG, the “one-hybrid fitness for binding parS DNA” value is reported as at most 0.2.
With ELMG the “one-hybrid fitness for binding parS DNA” value was at most 0.2.
With ITWM the “one-hybrid fitness for binding parS DNA” value was at most 0.2.
RRSA was tested, and the “one-hybrid fitness for binding parS DNA” value was 0.693.
With CYRT the “one-hybrid fitness for binding parS DNA” value was at most 0.2.
In the case of GTHH, the “one-hybrid fitness for binding parS DNA” value is reported as at most 0.2.
GWSM was tested, and the “one-hybrid fitness for binding parS DNA” value was at most 0.2.
For DTWE, the “one-hybrid fitness for binding parS DNA” value was at most 0.2.
In the case of CNCN, the “one-hybrid fitness for binding parS DNA” value is reported as at most 0.2.
In the case of LPRY, the “one-hybrid fitness for binding parS DNA” value is reported as at most 0.2.
With KNLW the “one-hybrid fitness for binding parS DNA” value was at most 0.2.
In the case of ICAS, the “one-hybrid fitness for binding parS DNA” value is reported as at most 0.2.
In the case of ETDT, the “one-hybrid fitness for binding parS DNA” value is reported as at most 0.2.
For CPHS, the “one-hybrid fitness for binding parS DNA” value was at most 0.2.
In the case of ADSG, the “one-hybrid fitness for binding parS DNA” value is reported as at most 0.2.
QYPF was tested, and the “one-hybrid fitness for binding parS DNA” value was at most 0.2.
With GRRE the “one-hybrid fitness for binding parS DNA” value was at most 0.2.
With NAWL the “one-hybrid fitness for binding parS DNA” value was at most 0.2.
For FSMI, the “one-hybrid fitness for binding parS DNA” value was at most 0.2.
In the case of TQSR, the “one-hybrid fitness for binding parS DNA” value is reported as at most 0.2.
KLGG was tested, and the “one-hybrid fitness for binding parS DNA” value was at most 0.2.
With GFGL the “one-hybrid fitness for binding parS DNA” value was at most 0.2.
In the case of VGSS, the “one-hybrid fitness for binding parS DNA” value is reported as at most 0.2.
With WSEL the “one-hybrid fitness for binding parS DNA” value was at most 0.2.
For LPKL, the “one-hybrid fitness for binding parS DNA” value was at most 0.2.
MDAW was tested, and the “one-hybrid fitness for binding parS DNA” value was at most 0.2.
SYHE was tested, and the “one-hybrid fitness for binding parS DNA” value was at most 0.2.
For TLNY, the “one-hybrid fitness for binding parS DNA” value was at most 0.2.
For PRSI, the “one-hybrid fitness for binding parS DNA” value was at most 0.2.
In the case of REVQ, the “one-hybrid fitness for binding parS DNA” value is reported as at most 0.2.
With LLHI the “one-hybrid fitness for binding parS DNA” value was at most 0.2.
In the case of WDDR, the “one-hybrid fitness for binding parS DNA” value is reported as at most 0.2.
With CHHE the “one-hybrid fitness for binding parS DNA” value was at most 0.2.
For KKPM, the “one-hybrid fitness for binding parS DNA” value was at most 0.2.
With RHKW the “one-hybrid fitness for binding parS DNA” value was 0.205.
With DDVR the “one-hybrid fitness for binding parS DNA” value was at most 0.2.
DDRS was tested, and the “one-hybrid fitness for binding parS DNA” value was at most 0.2.
With YAAI the “one-hybrid fitness for binding parS DNA” value was at most 0.2.
In the case of EIAP, the “one-hybrid fitness for binding parS DNA” value is reported as at most 0.2.
In the case of CSHM, the “one-hybrid fitness for binding parS DNA” value is reported as at most 0.2.
LTQK was tested, and the “one-hybrid fitness for binding parS DNA” value was at most 0.2.
For RWEM, the “one-hybrid fitness for binding parS DNA” value was at most 0.2.
With PATE the “one-hybrid fitness for binding parS DNA” value was at most 0.2.
ARHL was tested, and the “one-hybrid fitness for binding parS DNA” value was at most 0.2.
For NNPW, the “one-hybrid fitness for binding parS DNA” value was at most 0.2.
For NPGG, the “one-hybrid fitness for binding parS DNA” value was at most 0.2.
In the case of RMNH, the “one-hybrid fitness for binding parS DNA” value is reported as 0.287.
CVAA was tested, and the “one-hybrid fitness for binding parS DNA” value was at most 0.2.
WYCT was tested, and the “one-hybrid fitness for binding parS DNA” value was at most 0.2.
With VDWR the “one-hybrid fitness for binding parS DNA” value was at most 0.2.
With RQFE the “one-hybrid fitness for binding parS DNA” value was at most 0.2.
With NAKS the “one-hybrid fitness for binding parS DNA” value was at most 0.2.
For LITD, the “one-hybrid fitness for binding parS DNA” value was at most 0.2.
With FISS the “one-hybrid fitness for binding parS DNA” value was at most 0.2.
For VCHS, the “one-hybrid fitness for binding parS DNA” value was at most 0.2.
In the case of GPHE, the “one-hybrid fitness for binding parS DNA” value is reported as at most 0.2.
QTIG was tested, and the “one-hybrid fitness for binding parS DNA” value was at most 0.2.
THTR was tested, and the “one-hybrid fitness for binding parS DNA” value was at most 0.2.
